According to PubChem BioAssay AID1508624 (National Center for Advancing Translational Sciences (NCATS), 2021):
Screen size: about 48,000 compounds; about 120 (0.25%) were called active. Not shown: some 4% with an inconclusive outcome. Calls follow the shape of the dose curve; as a rule, active = well fitted activation curve with a large enough effect; inconclusive = small, poorly fitted or top-dose-only effect, or another doubt; inactive = no such curve, though single readings can be large or run the other way. Some of the results follow.

assay: Primary qHTS for Identification of Small Molecule Activators of Huntingtin-Antisense Promoter Activity; settings: HEK293 HTT-AS promoter firefly luciferase reporter, 24 h; series mostly up to 57.5 µM; activity change, positive = activation: at the top concentration; also: nearly all actives have a fitted effect of over 55% in size
In short: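 HEK293 cells carrying firefly luciferase reporters were seeded at 2,500 per well in Opti-MEM and cultured for 24 h. They were then treated with compounds at up to 57.5 uM final for 24 h at 37 degrees C before Dual-Glo luminescence readout.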

Activity change, positive = activation, inactive:
O=C(c1c2c(nc3ccccc13)C(=O)N(C1CCCCC1)C2)N1CCN(c2ccc(F)cc2)CC1 -7.23%
Cc1cc(C)cc(Nc2ncnc3c2nc2n3CCCC2)c1 -20.3%
COc1ccc(N2CC(NC(=O)COc3ccccc3F)CC2=O)cc1OC (configuration not stated) -13.4%
CC(C)CCNC(=O)CN1C(=O)CCn2nc(-c3cn(C)c4ccccc34)cc21 0.499%
COc1ccc(C)c2sc(NC(=O)c3ccc(S(=O)(=O)N4CCCCC4)cc3)nc12 -15.5%
CCOc1ccc(NC(=O)CSc2oc(-c3ccco3)nc2S(=O)(=O)c2ccc(C)cc2)cc1 -24.5%
CCCN1CCN(CCCNC(=O)c2cc3c(Cl)nc4ccccc4c3s2)CC1 -24.2%
CCCOc1ccc(/C=C/C(=O)Nc2sc(C)c(C)c2C(=O)OCC)cc1OC -13.2%
Cc1nc(S(=O)(=O)N2CCN(c3ccc(Cl)cc3)CC2)cn1C -15.8%
Cc1nnc(SCc2cc(=O)c3ccccc3[nH]2)s1 -16.4%
CCOc1ccc(S(=O)(=O)NCCc2csc(-c3ccc(Cl)cc3)n2)cc1 -42.8%
CCOc1ccc(CCNC(=O)c2ccc(-c3nc(CSc4ccc(C)cc4)c(C)o3)cc2)cc1 -35%
COc1ccc(OCc2ccc(-c3nc(C#N)c(N4CCN(C)CC4)o3)o2)cc1 -28.2%
CCC1CN(C(=O)NCc2cccc(OC)c2)c2cc(Cl)ccc2O1 (configuration not stated) -30.8%
Cc1ccccc1C(=O)c1cccn1CC(=O)NCc1ccc(Cl)cc1 -5.76%
COc1ccccc1CNC(=O)Cc1c(C)c2c(cc(C)c3c(C)c(C)oc32)oc1=O -0.988%
Cc1ccc2c(CN3CCN(Cc4ccccc4Cl)CC3)cc(=O)oc2c1 -12.7%
COc1ccc(CCNC(=O)CCCn2c(=O)c3cccn3c3cccnc32)cc1OC 1.54%
CCCCC1CCC(C(=O)N2CC(=O)Nc3ccc(F)cc3C2c2ccc(F)cc2)CC1 (configuration not stated) -16.8%
COc1ccc(C2CC(=O)Nc3c2c(=O)nc2c(C)cccn32)cc1OC (configuration not stated) -6.51%
COc1ccc(NC(=O)c2ccc(CN3C(=O)CCn4nc(C)cc43)cc2)c(OC)c1 -7.68%
CCN(CC)c1nn2c(=O)c(C(=O)NCCc3ccc(C)cc3)cnc2s1 -13.8%
CCn1c2ccccc2c2nnc(N3CCN(c4ccc(F)cc4)CC3)nc21 -6.67%
CCOC(=O)c1c(NC(=O)COc2cccc(C(F)(F)F)c2)sc2c1CCC(C)C2 (configuration not stated) 2.61% [at 11.5 µM, percent change from vehicle, -100% = no light]
CCOC(=O)c1cc2c(=O)n3ccccc3nc2n(CC2CCCO2)c1=NC(=O)c1ccc(C(C)(C)C)cc1 (configuration not stated) -22.4%
Cc1nc2sc(C(=O)N(C)Cc3ccccc3)c(NC(=O)c3ccccc3)c2c(C)c1Cl 4.38%
CCOc1ccc(CNC(=O)c2ccc(Sc3ccc(Cl)cc3)c(NC(C)=O)c2)cc1 -45.8%
COc1ccc(NC(=O)CSc2cn(CC(=O)N3CCCCC3)c3ccccc23)c(OC)c1 -21.4%
CCCC(=O)Nc1ccc2c(c1)nc(CN1CCN(C(=O)OCC)CC1)n2C(C)C -41.7%
CC1CCN(C(=O)c2ccc3c(c2)N(Cc2ccccc2F)C(=O)c2ccccc2S3(=O)=O)CC1 -24.1%
Cc1ccc(NC(=O)C(=O)NCC(c2cccnc2)N2CCOCC2)cc1 (configuration not stated) -6.98%
Cc1c(Cl)cccc1-n1ncc(C(=O)N2CCN(C)CC2)c1C1CCN(C(=O)OC(C)(C)C)CC1 -1.04%
COc1ccc(S(=O)(=O)n2nc(C)c(S(=O)(=O)N3CCCCC3)c2C)cc1 -5.22%
COc1ccccc1N1CCN(C(=O)c2cc3c(=O)n(C)c4ccccc4c3s2)CC1 -7.54%
COc1ccc(-c2nc(SCC(=O)NC3CCCC3)c(-c3ccc(OC)cc3)[nH]2)cc1 -25.6%
COc1ccc(CNC(=O)Cn2nc(C)n3cccc3c2=O)cc1 -5.24%
CCc1cccc2c(CCO)c[nH]c12 7.75%
CC(C)Cn1c(=O)c2ccccc2n2c(CCC(=O)N3CCN(c4cccc(Cl)c4)CC3)nnc12 -2.99%
CC(=O)c1ccc(N2CCN(c3ncnc4c3c(-c3ccccc3)cn4-c3ccc(C)c(Cl)c3)CC2)cc1 -3.6%
COCCCN(Cc1ccco1)C(=O)c1cc2c(s1)-c1ccccc1OC2 -21%
O=C(COc1ccccc1)Nc1sc2c(c1C(=O)Nc1ccccc1Cl)CCCCC2 -11.6%
CCN(Cc1nc(-c2cccc(C)c2)no1)S(=O)(=O)c1ccc(C)cc1 -27.2%
Cc1cccc(C)c1NC(=O)CN1C(=O)CCSc2ccc(S(=O)(=O)N3CCCC3)cc21 -8.38%
COc1ccc(N(CC(=O)Nc2ccc(C)c(C)c2)S(=O)(=O)c2ccc(C)cc2)cc1OC -6.31%
Cc1ccc(C)c(N2C(=O)N(Cc3c(F)cccc3Cl)c3ccccc3S2(=O)=O)c1 -7.55%
COC(=O)c1cc(NC(=O)Nc2ccc3snnc3c2)cc(C(=O)OC)c1 -17.6%
CC[C@H](CC[C@@H](C)[C@H]1CC[C@H]2[C@@H]3CC=C4C[C@@H](O)CC[C@]4(C)[C@@H]3CC[C@]12C)C(C)C -14.7%
Cc1ccccc1-c1noc(-c2ccc(N3CCN(c4ccccc4)CC3)c([N+](=O)[O-])c2)n1 -7.17%
CC(=O)OCc1cc(=O)n2nc(C3CCCCC3)sc2n1 19.9%
Cc1ccc(-c2c(CN3CCN(c4cc(C)ccc4C)CC3)csc2C)cc1 -7.5%
Cc1c(C(=O)NC(C)c2ccccc2)sc2ncnc(N(C)C3CCCCC3)c12 (configuration not stated) -23.5%
CCCn1cc(S(=O)(=O)c2cccc(Cl)c2)c(=O)c2cc(F)c(N3CCOCC3)cc21 -24.2%
CCN(CC)C(=O)CSc1nnc2ccc3ccccc3n12 8.88%
CCc1ccccc1NC(=O)CN1C(=O)CCn2nc(-c3cccn3C)cc21 -4.41%
CCOC(=O)C1CCN(c2nc3c(S(=O)(=O)c4ccc(Br)cc4)nnn3c3ccsc23)CC1 -15.3%
FC(F)(F)c1cccc(-n2cc(-c3ccccc3)c3c(N4CCCCC4)ncnc32)c1 0.648%
COc1ccc(CCNC(=O)Cn2cc(C(=O)c3ccc(Cl)cc3)c(=O)c3ccc(C)nc32)cc1OC -9.86%
COc1ccccc1CNC(=O)CN1C(=O)CCc2cc(S(=O)(=O)N3CCCCC3)ccc21 -2.9%
COc1ccc(C(=O)NCCn2cc(SCc3cccc(F)c3)c3ccccc32)cc1OC -58.1%
CCCN(CCC)CCNC(=O)Cn1cnc2sc(C)c(S(=O)(=O)N3CCC(C)CC3)c2c1=O 7.66%
CCc1ccc(NC(=O)CC(c2cc(OC)c(OC)c(OC)c2)N2Cc3ccccc3C2=O)cc1 (configuration not stated) -42.1%
COCCN1C(=O)c2oc3cc(C)cc(C)c3c(=O)c2C1c1cccc(O)c1 (configuration not stated) 1.15%
COc1ccc(CNC(=O)c2cc3c(-c4ccc(Cl)cc4)nn(C)c3s2)cc1 -28.2%
COc1ccc(S(=O)(=O)N(CCc2ccccc2)CC(=O)NCc2ccccc2)cc1 19.1% [at 11.5 µM, percent change from vehicle, -100% = no light]
CCOC(=O)c1cccc(NC(=O)Cn2nc3c(cc2=O)CCCC3)c1 -15.3%
Cc1ccc(N2CC(C(=O)NCCS(=O)(=O)N3CCN(c4ccccc4)CC3)CC2=O)cc1 (configuration not stated) -10.6%
Cn1c(=O)c(=O)n(C)c2cc(NS(=O)(=O)c3ccc(Br)cc3)c(Cl)cc21 -27.5%
CCc1ccc(-n2nc(CO)c(C(=O)NCc3ccccc3Cl)n2)cc1 -20%
COc1ccc(NC(=O)N2CCCn3nc(C)cc32)cc1OC -10.6%
CCCCNC(=O)CSc1nc2cc3c(cc2c(=O)n1Cc1ccc(C(=O)NCCc2ccc(OC)c(OC)c2)cc1)OCO3 -1.97%
CCn1c(C(=O)NCc2ccccc2Cl)cc2sc(Cl)cc21 -19.7%
CC(Oc1ccccc1)C(=O)Nc1ccc(C(=O)OCc2cc(=O)n3nc(C4CC4)sc3n2)cc1 (configuration not stated) -31.5%
O=C(CCC(=O)N1Cc2ccccc2Oc2ncccc21)NCc1cccc(Cl)c1 -13%
Cc1cc2[nH]c(=O)c(=O)[nH]c2cc1S(=O)(=O)N1CCN(c2ccccc2)CC1 -5.73%
COc1ccc(Cc2nc3ccccc3n2Cc2ccccc2C)cc1 -36.3%
COc1ccc(-c2cc3ccc(O)c(CN4CCCC(C)C4)c3oc2=O)cc1OC (configuration not stated) -1.18%
O=C(NCc1cccc(Cl)c1)c1ccc(NC(=O)N2CCSc3ccccc32)cc1 -8.28%
COc1ccc(-c2cn3c(n2)sc2cc(C(=O)Nc4ccc(C)c(Cl)c4)ccc23)cc1 23.7%
CCOC(=O)c1[nH]c2c(c1Cc1ccccc1C)C(=O)CC(c1ccccc1)C2 (configuration not stated) -8.69%
CCOc1ccc(-c2nnc(SCC(=O)Nc3ccc(C)cc3C)o2)cc1 -51%
CCc1ccc(NC(=O)c2cnn(-c3c(C)cccc3C)c2C2CCN(C(=O)OC(C)(C)C)CC2)cc1 -18.6%
Cc1c(C(=O)N2CCCCCC2)c(S(=O)(=O)Nc2cccc(C#N)c2)c(C)n1C -2.96%
CC1(C)N=C(SCc2ccc(Cl)cc2)c2ccccc2N1 12.4%
O=C(NCCc1ccccc1)C(=O)NCC(c1cccs1)S(=O)(=O)c1cccs1 (configuration not stated) -31.9%
Cc1cc(=O)[nH]c2nnc(SCc3ccccc3F)n12 -10.4%
Cn1c(=O)cc(SCC(=O)NCc2ccc(F)cc2)c2cc(Cl)ccc21 -4.33%
Cc1ccc(S(=O)(=O)N2CCN(Cc3cc(=O)n4nc(-c5ccccc5Cl)sc4n3)CC2)cc1 1.81%
CCOC(=O)c1c(C)[nH]c(C)c1S(=O)(=O)N1CCC(C(=O)Nc2ccccc2CC)CC1 -12.7%
COc1cccc(C2C(C(=O)Nc3ccccc3OC)=C(C)Nc3nc(-c4ccco4)nn32)c1 (configuration not stated) -15.3%
COc1ccc(-n2nc(C(=O)NCCc3ccc(OC)c(OC)c3)c3c4ccccc4n(C)c3c2=O)cc1 -9.71%
Cc1ccccc1-c1nc(CS(=O)(=O)CC(=O)NCCCc2ccccc2)c(C)o1 -18.9%
CCC(Sc1nnc2c3ccccc3n(CC)c2n1)C(=O)Nc1ccc(NC(C)=O)cc1 (configuration not stated) -8.43%
